# Source: the BET-seq Pho4 binding data (Le et al. 2018)
# The other results are listed elsewhere or left out. The energies were worked out here from pooled read counts, against the library average; single values are noisy.
# Target: T1, Pho4 (S. cerevisiae) (UniProt P07270)
# T1 sequence: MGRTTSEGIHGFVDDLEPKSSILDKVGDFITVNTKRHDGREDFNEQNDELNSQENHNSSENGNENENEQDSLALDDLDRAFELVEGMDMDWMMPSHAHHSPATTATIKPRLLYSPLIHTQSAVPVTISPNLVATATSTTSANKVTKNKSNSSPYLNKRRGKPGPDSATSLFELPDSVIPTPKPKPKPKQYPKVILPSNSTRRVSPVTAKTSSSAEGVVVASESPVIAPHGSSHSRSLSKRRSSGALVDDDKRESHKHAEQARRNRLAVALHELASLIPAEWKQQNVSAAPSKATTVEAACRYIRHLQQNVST
# Test: relative binding free energy (BET-seq); higher = weaker binding
# Conditions: reference: library average
row,Sequence,relative binding free energy [kcal/mol]
1,ATTTTCACGTGCAGAT,0.32
2,AGTATCACGTGCGGGC,0.09
3,TTTGTCACGTGGGAGA,-0.08
4,GCTGTCACGTGTGGTC,0.06
5,GTGTCCACGTGGTCTT,0.08
6,GTGCTCACGTGTGTGC,0.26
7,GGTGGCACGTGCATGT,-0.19
8,GTGACCACGTGGTAGG,-0.08
9,TTATCCACGTGTGGCT,0.06
10,TAAATCACGTGTTGGG,0.3
11,GGGGTCACGTGGTATA,0.2
12,ATTATCACGTGTTTCG,0.14
13,TGTCTCACGTGTGGTA,0.2
14,TGGGGCACGTGGTCGC,-0.3
15,AGTGGCACGTGGTTGC,-0.14
16,GCGTGCACGTGTGCGA,-0.01
17,ATGTTCACGTGAGCTA,0.49
18,CTTGACACGTGATTGT,0.05
19,TGATTCACGTGCATAT,0.21
20,CGGGTCACGTGAGGTG,0.27
21,TACGTCACGTGGTTTT,0.08
22,GGGGGCACGTGGTAAG,-0.08
23,ATGTTCACGTGTCGTG,0.24
24,AAGTGCACGTGGCTGT,-0.12
25,TGGTACACGTGGTACT,-0.06
26,CGTGGCACGTGAGTAA,0.1

row,Sequence,relative binding free energy [kcal/mol]
1,TTGGTCACGTGAATAC,0.31
2,AGGTGCACGTGTTGTC,0.09
3,GTAAGCACGTGTGGCA,-0.07
4,GACTGCACGTGGGAGG,0.11
5,TTTCTCACGTGCATGT,0.29
6,TTGGTCACGTGCAGGC,-0.01
7,GGGAACACGTGGTGTC,-0.02
8,GGGGACACGTGGCGCG,-0.01
9,GAGAACACGTGGTGGG,0.06
10,ATAGGCACGTGGGTAG,-0.22
11,GTGGTCACGTGCAGGG,0.05
12,GCATGCACGTGGGATG,-0.03
13,TTTTACACGTGCTCGT,-0.02
14,AGAGACACGTGTTGGG,-0.01
15,GTTGGCACGTGGGTAG,-0.05
16,ATCAGCACGTGGTGTG,-0.12
17,TGGAACACGTGTTGTG,-0.07
18,TTCTCCACGTGTATGG,0.17
19,GTGGTCACGTGAGAAA,0.51
20,TATCGCACGTGCGGGG,-0.28
21,TTGCTCACGTGGGTAT,0.13
22,CGGCGCACGTGGATGA,0.11
23,TGATTCACGTGTCGGG,0.39
24,TCGGCCACGTGGGTTG,-0.25
25,TATATCACGTGAGTGG,0.38
26,TTACTCACGTGGTGAT,0.12

row,Sequence,relative binding free energy [kcal/mol]
1,AGTGCCACGTGGGTAA,-0.07
2,TTTGGCACGTGGGTCT,-0.09
3,AGGATCACGTGGCTGT,0.06
4,TTTTGCACGTGGTGTC,-0.05
5,GTGGACACGTGGGAGA,-0.11
6,AGACTCACGTGAGTTG,0.44
7,GAGTTCACGTGGTTTC,0.24
8,GTCGGCACGTGGTAGT,0.01
9,GTAATCACGTGGCTTG,0.14
10,ACGGGCACGTGGAGGA,-0.23
11,CAATTCACGTGTTAGG,0.18
12,ATGGTCACGTGTATGG,0.13
13,GGGGCCACGTGTTGTC,0
14,AATATCACGTGAGATG,0.37
15,GGAATCACGTGTTGGA,0.18
16,CTCAGCACGTGTGTGT,-0.04
17,CTTAACACGTGAGGGT,0.06
18,TAGGTCACGTGCGTGT,0.09
19,GGCTGCACGTGGCGGT,-0.09
20,GTTTGCACGTGGTGGG,-0.02
21,GGTGCCACGTGGGTCA,-0.19
22,GTGTGCACGTGAAGTA,0.21
23,TGGATCACGTGAGTGG,0.32
24,TTTAACACGTGGTTTC,-0.06
25,GGGAACACGTGTGAGA,0.24
26,TGGGCCACGTGTTCTT,-0.02

row,Sequence,relative binding free energy [kcal/mol]
1,GTGATCACGTGGATGT,0.09
2,TCAGGCACGTGAGAAT,0.31
3,TGAGTCACGTGAGATA,0.34
4,AGAGACACGTGTGGCG,0.04
5,GGAGGCACGTGTAGAC,-0.01
6,AATTTCACGTGCGTAG,0.29
7,GTCGTCACGTGTGGGG,0.15
8,GCACGCACGTGGTGGT,-0.16
9,GGTGGCACGTGAGTGT,0.29
10,GTGGACACGTGCGGTG,-0.04
11,TTTTACACGTGGCGGC,0.07
12,GTGGTCACGTGATGGG,0.3
13,CCGGTCACGTGTGGGC,0.25
14,CGTGCCACGTGGGGAG,-0.19
15,TTTTACACGTGGGCGT,-0.1
16,TGTTGCACGTGATTAG,0.08
17,GTTGTCACGTGGGGTT,0
18,ACTTTCACGTGGGTCG,0.11
19,TCTGGCACGTGGGTAA,-0.17
20,CGGCGCACGTGTGGTG,0
21,GTGTGCACGTGTTATT,-0.01
22,ATTGTCACGTGGTACG,0.06
23,GTTTACACGTGCCGTG,0.14
24,GGATCCACGTGGTGGT,0.06
25,AGGATCACGTGCGTGG,0.01
26,AATGGCACGTGGTTAT,-0.03

row,Sequence,relative binding free energy [kcal/mol]
1,GTGGGCACGTGGAATA,0.08
2,GTGAGCACGTGTTTCT,0.01
3,TGTCTCACGTGGGTGT,0.09
4,TTATTCACGTGCGATG,0.25
5,GGTTGCACGTGGTCAG,-0.01
6,ATTGGCACGTGCGTCA,-0.19
7,TATGGCACGTGTGTAC,-0.19
8,AAGGTCACGTGGTGTT,0.09
9,AGATTCACGTGAATGT,0.46
10,CGGTTCACGTGGAGCT,0.26
11,TGGGGCACGTGTGATT,0.08
12,TTGAACACGTGAACGT,0.42
13,TTGGACACGTGATAGA,0.11
14,TTAGCCACGTGGGTGT,-0.15
15,TCCGGCACGTGGGGGC,-0.27
16,TGAGTCACGTGGAGGG,0.19
17,TAATTCACGTGGTCTA,0.3
18,TGTGGCACGTGTCTGC,-0.07
19,AATTTCACGTGTGAAA,0.24
20,TCATTCACGTGAAGTG,0.45
21,AAGTGCACGTGTGCAT,0.07
22,ATCTGCACGTGGGAGG,-0.1
23,TCGTTCACGTGTGAGG,0.39
24,TGCTTCACGTGTGTTT,0.3
25,TTTGTCACGTGCCTTT,-0.11
26,TTTGACACGTGTAGAA,0

row,Sequence,relative binding free energy [kcal/mol]
1,GTAGTCACGTGGGTAG,0.05
2,TGTAGCACGTGGGCGT,-0.23
3,ATTGTCACGTGCTTTG,0.12
4,CGGGTCACGTGGAGAT,0.15
5,TTTGTCACGTGCATTA,0.14
6,GTGTGCACGTGGAAAT,0.12
7,TTGCACACGTGTGCGT,-0.08
8,ATTGTCACGTGGACAG,-0.09
9,GTAATCACGTGGCTGG,0.24
10,TTGCACACGTGGGTAA,-0.11
11,GGCTGCACGTGTGCTG,-0.05
12,CGTCGCACGTGTGGGG,0.1
13,AGATCCACGTGTAGTT,0.19
14,CTGCGCACGTGGGGTT,-0.33
15,ATTCGCACGTGTTTTT,-0.11
16,GTGTTCACGTGCATCG,0.31
17,CATGACACGTGCGGGG,-0.08
18,TGTGTCACGTGGTGTT,0.02
19,TGATACACGTGGAAAT,0.28
20,GGGGTCACGTGCCGTT,0.09
21,ACGTCCACGTGAGGGT,0.26
22,CTGCTCACGTGTTTGG,0.2
23,GAGCCCACGTGGGTGG,-0.18
24,TGTTGCACGTGACATT,-0.03
25,GTTGCCACGTGTTTTG,-0.11
26,GGGGTCACGTGCTCGG,0.05

row,Sequence,relative binding free energy [kcal/mol]
1,ATATGCACGTGAGTGA,-0.03
2,GGTTGCACGTGTTTGG,0.14
3,TGTTTCACGTGGATAA,0.25
4,CGTTTCACGTGAGGGG,0.39
5,GTATTCACGTGGTGGT,0.2
6,CGTTGCACGTGTTGTC,-0.01
7,ATGTGCACGTGTTGAC,-0.01
8,TAGTCCACGTGTTGTA,0
9,AGAATCACGTGTGTGG,0.2
10,TGAAACACGTGAAGGT,0.15
11,AGTGCCACGTGGGATT,-0.22
12,GTCTTCACGTGTGGAG,0.28
13,CGTATCACGTGTAAGT,0.35
14,AGTTACACGTGTCGTA,0.03
15,TGTATCACGTGATGTA,0.03
16,TTGATCACGTGTTTTT,0.22
17,CGAGGCACGTGGTATT,-0.19
18,GGAATCACGTGTTCTG,0.22
19,ATAAGCACGTGGATAG,-0.13
20,TTTCGCACGTGCGATT,0.02
21,GAACTCACGTGAGGGT,0.4
22,GGCACCACGTGGGGGT,-0.27
23,ATTTTCACGTGGAAGG,0.29
24,TTGTACACGTGAGTTG,0.19
25,AATTTCACGTGATGGA,0.33
26,AATTTCACGTGTTGAG,0.21

row,Sequence,relative binding free energy [kcal/mol]
1,TGTGACACGTGTACTG,0.04
2,GGCGTCACGTGATGTC,0.41
3,ATTGTCACGTGCTAGT,-0.02
4,AGTTGCACGTGAAGAT,0.23
5,AGCTGCACGTGCGGGG,-0.06
6,GGGATCACGTGTACGG,0.07
7,TGAATCACGTGGGTTT,0.06
8,ATAGACACGTGCGAGG,0.02
9,ATCAGCACGTGTAGTT,-0.03
10,TGGGGCACGTGTGTAT,0.02
11,GTAGTCACGTGGTTGT,0.17
12,AAAGTCACGTGTGGCA,0.24
13,GTATTCACGTGTTGAG,0.33
14,TACGGCACGTGATTAG,0.01
15,CTGGTCACGTGCGTAT,0.01
16,AGGTACACGTGGGCAG,-0.13
17,GGAGTCACGTGAGTCT,0.3
18,AGTTACACGTGGGTGT,0
19,CGGTTCACGTGGCAGA,0.42
20,TAGTTCACGTGCGAGT,0.24
21,CGAATCACGTGTAGGT,0.13
22,CGTGTCACGTGTTGCT,0.03
23,TAGGCCACGTGGTAAT,-0.12
24,GAATACACGTGAGGGT,0.17
25,ATGGGCACGTGGTTGT,-0.11
26,CTGTTCACGTGGGGGA,0.11

row,Sequence,relative binding free energy [kcal/mol]
1,AGACACACGTGTGTTG,0.2
2,TTGGGCACGTGGGCGA,-0.3
3,GGGTGCACGTGAGGCC,0.17
4,GGGGGCACGTGGAGCG,-0.07
5,GGGACCACGTGTAGGG,0.06
6,GTCAGCACGTGTTTTT,0.13
7,GAGTACACGTGTTTTG,0.06
8,CAAGTCACGTGGGAAT,0.14
9,CTGTCCACGTGTTTGT,0.11
10,TACTGCACGTGTGAAG,0.13
11,GGTGTCACGTGGTCCG,-0.02
12,TTTGCCACGTGATAGT,0.05
13,TTTGTCACGTGCAAGG,0.18
14,GGTCCCACGTGGTGGG,-0.2
15,TCTAACACGTGATGGG,0.11
16,GGCGTCACGTGGCGGG,0.14
17,TGTAACACGTGGGGCG,-0.05
18,TTGATCACGTGTAGGC,0.21
19,TGGTGCACGTGACGGT,0.13
20,GTTATCACGTGGAATG,0.16
21,GAGCTCACGTGTTGTA,0.25
22,CGTGTCACGTGGCGAT,-0.01
